89 compounds from publication PMC4336329 (PLoS ONE, 2015) can be followed below.

Hit rate of the full screen: of about 310,000 compounds, about 14,000 (4.5%) showed an effect of 50% or more. The effect is printed as a negative number. Some of the results follow.
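Also: peak tail current of the secondary pulse compared with the same well before compound.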

The target of the assay is human ether-à-go-go-related gene (hERG) potassium channel (human, UniProt Q12809). The experiment in a line: primary screen, population patch clamp on CHO cells stably expressing hERG.
Chain of human ether-à-go-go-related gene (hERG) potassium channel (Q12809 whole entry, looked up): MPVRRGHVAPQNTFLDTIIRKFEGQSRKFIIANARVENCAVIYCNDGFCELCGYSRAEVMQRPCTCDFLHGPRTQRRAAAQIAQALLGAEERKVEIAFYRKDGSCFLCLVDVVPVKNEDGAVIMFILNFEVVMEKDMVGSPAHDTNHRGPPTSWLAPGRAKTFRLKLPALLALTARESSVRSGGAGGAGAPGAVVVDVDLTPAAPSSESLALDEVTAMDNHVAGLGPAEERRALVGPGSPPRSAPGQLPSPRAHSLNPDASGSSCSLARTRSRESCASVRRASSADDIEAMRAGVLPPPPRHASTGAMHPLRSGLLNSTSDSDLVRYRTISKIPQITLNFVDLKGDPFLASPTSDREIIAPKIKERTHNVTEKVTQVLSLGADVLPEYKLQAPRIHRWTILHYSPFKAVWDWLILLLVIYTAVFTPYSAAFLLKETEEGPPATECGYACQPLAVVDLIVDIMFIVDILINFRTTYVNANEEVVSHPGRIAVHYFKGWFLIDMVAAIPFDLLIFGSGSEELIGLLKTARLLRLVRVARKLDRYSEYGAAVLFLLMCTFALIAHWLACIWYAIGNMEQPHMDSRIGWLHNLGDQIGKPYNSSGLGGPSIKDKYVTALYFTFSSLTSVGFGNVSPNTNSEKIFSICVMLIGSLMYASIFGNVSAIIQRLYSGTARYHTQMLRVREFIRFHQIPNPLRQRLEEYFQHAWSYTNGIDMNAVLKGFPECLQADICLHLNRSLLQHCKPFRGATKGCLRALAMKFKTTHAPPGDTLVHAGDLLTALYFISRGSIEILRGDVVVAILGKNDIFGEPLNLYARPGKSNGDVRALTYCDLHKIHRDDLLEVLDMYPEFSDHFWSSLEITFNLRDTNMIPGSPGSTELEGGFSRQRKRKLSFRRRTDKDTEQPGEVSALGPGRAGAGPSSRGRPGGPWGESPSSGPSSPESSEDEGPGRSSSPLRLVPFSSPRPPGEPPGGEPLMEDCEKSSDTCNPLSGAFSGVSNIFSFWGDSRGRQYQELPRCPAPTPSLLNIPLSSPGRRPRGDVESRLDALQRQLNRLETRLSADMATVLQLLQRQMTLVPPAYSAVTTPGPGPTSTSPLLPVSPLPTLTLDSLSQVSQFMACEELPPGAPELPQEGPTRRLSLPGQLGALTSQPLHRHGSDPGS
`CCOc1[nH]n(-c2ccccc2)c(=O)c1C=NCc1ccncc1`: the “hERG current change (%, negative = inhibition) at 10uM” value was -50%. Then `O=C1CCC(=O)N1OCCCCOc1ccccc1`, with -4.34%; and `CC1(C)CC(N2CCN(Cc3ccccc3)CC2)=CC(=[N+]2CCCCC2)C1.[I-]`, with 7.04%. Then `CCn1nnnc1SCC(=O)Nc1nc2ccc(OC)cc2s1`, with -0.034%. Under `COc1ccc(CC(=O)Nc2cccc(-c3nnc(-c4cccc(C)c4)o3)c2)cc1OC` stands 11.3%; under `CCCn1c(SCC(=O)NC2CC2)nnc1-c1ccccn1`, -2.29%; under `COc1nc(Nc2ccc([N+](=O)[O-])cc2)nc(NC2CCCCC2)n1`, -1.47%. As for `COc1ccc(NC(=O)CS(=O)CC(=O)Nc2cccnc2)cc1` (centres unmarked), the “hERG current change (%, negative = inhibition) at 10uM” value was 12.9%. Then `COc1ccccc1NC(=O)C1CCN(S(=O)(=O)c2ccc3c(c2)NC(=O)CO3)CC1`, with 9.58%; and `CCc1ccccc1NC(=S)N(Cc1cccnc1)Cc1ccco1`, with -18.8%.

On to `COc1cc2c(cc1OC)C(NC(=O)C(F)(F)F)CNC2=O` (centres unmarked), for which the “hERG current change (%, negative = inhibition) at 10uM” value came to 16.1%.

As to `CC(=O)c1c(C)[nH]c(C(=O)Nc2cccc3ccccc23)c1C`, the “hERG current change (%, negative = inhibition) at 10uM” value was 10.7%. On to `COc1cc(-c2nc3cnccn3c2Nc2ccccc2)ccc1O`, for which the “hERG current change (%, negative = inhibition) at 10uM” value is recorded as -0.787%.

In the case of `O=C1C=C(c2ccccc2)OC(c2ccccc2)O1` (centres unmarked), the “hERG current change (%, negative = inhibition) at 10uM” value is 1.43%. Under `COc1cc2c(cc1OC)C[N+](C)(C)CC2.[I-]` stands 20.1%; under `CC(C)CC(NC(N)=O)C(=O)OCC(=O)N(Cc1ccccc1)Cc1ccccc1` (centres unmarked), 15.6%. Then `Cc1ccc(O)c(C2=NNC(c3ccc(Cl)cc3)C2)c1` (centres unmarked), with 22.8%; and `CC(C)CC(=O)N1CCC(O)(CS(=O)(=O)Cc2ccccc2Cl)CC1`, with -0.687%. Then `Cc1nc(N2CCCCCC2)c2ccccc2n1.Cl`, with -51.5%. On to `COc1ccc2c(c1)Cc1sc(NC(=O)c3ccccc3)nc1-2`, for which the “hERG current change (%, negative = inhibition) at 10uM” value was 8.04%. Then `COc1ccccc1C(=O)N/C(=C\c1cn(S(=O)(=O)N(C)C)c2ccccc12)C(=O)N1CCCC1`, with 14.6%; and `N#Cc1c(C(F)(F)F)cc(-c2cccs2)nc1SCc1cccnc1`, with 5.31%; and `Cc1cccc(OCCSc2nc3ccccc3n2CCC(=O)O)c1`, with 6.39%.

In the case of `CC(=O)c1ccc(N2CCN(C3CCC(C(C)(C)C)CC3)CC2)cc1` (centres unmarked), the “hERG current change (%, negative = inhibition) at 10uM” value is recorded as 2.12%. Then `CCN(CC)C(=O)Cn1c(=O)oc2ccccc21`, with 15.7%; and `Cc1ccc(S(=O)(=O)N(CC(=O)Nc2ccc(Cl)c([N+](=O)[O-])c2)C2CCCCC2)cc1`, with 8%. Then `O=C(NC(=S)Nc1ccccc1N1CCCC1)c1ccc(F)cc1`, with 9.08%. Then `O=[N+]([O-])c1ccc(CN2CCN(c3ccccc3)CC2)o1`, with 9.7%; and `CCSCc1nnc(SCC(=O)Nc2ccc(F)cc2)n1CC`, with -13.7%.

Consider `CCOC(=O)c1cc(-c2cccs2)[nH]n1`, for which the “hERG current change (%, negative = inhibition) at 10uM” value is 4.38%.

For `CCOC(=O)c1cc(-c2ccccc2)n(Cc2cc(CC)no2)n1`, the “hERG current change (%, negative = inhibition) at 10uM” value was -16.3%.

On to `CCC1=C(OC(=O)N(CC)CC)N2C(=O)OC(=NCCc3c[nH]c4ccccc34)[C@]2(Cc2ccccc2)[C@H]2C1=CC[C@H]1C(=O)N(C)C(=O)[C@H]12`, for which the “hERG current change (%, negative = inhibition) at 10uM” value was determined as 15.6%. Then `Cc1ccc(S(=O)(=O)N2CCOC2CNC(=O)C(=O)NCCN(C)C)cc1` (centres unmarked), with 13.4%.

Regarding `Cc1c(C(Nc2ccccn2)c2ccc(Cl)cc2)c(=O)n(-c2ccccc2)n1C` (centres unmarked), the “hERG current change (%, negative = inhibition) at 10uM” value is listed as -18.6%.

Turning to `O=C1CC(SC2=NCCS2)C(=O)N1c1ccc(Br)cc1` (centres unmarked), the “hERG current change (%, negative = inhibition) at 10uM” value was -3.52%.

On to `NC(=O)c1cc(-c2csc(NCCc3ccccc3)n2)ccc1O`, for which the “hERG current change (%, negative = inhibition) at 10uM” value was found to be 6.05%.

With `CC(=O)c1cccc(N(C(=O)CNC(=O)c2cccs2)C(C(=O)NCC2CCCO2)c2ccccc2)c1` (centres unmarked), the “hERG current change (%, negative = inhibition) at 10uM” value came out at 12.1%. Then `Cc1c(NC(=O)NCCN2C(=O)C3C4C=CC(C4)C3C2=O)c(=O)n(-c2ccccc2)n1C` (centres unmarked), with 7.63%; and `Clc1ccc(Nc2ccc(NCc3ccccc3)nn2)cc1`, with -37.8%.

Consider `CC(=O)c1cccc2c(O)c(C3=Nc4ccccc4C3=O)[nH]c12`, for which the “hERG current change (%, negative = inhibition) at 10uM” value is reported as -18.5%.

On to `COc1ccc(Cl)cc1NC(=O)CN(C)CC(=O)NCc1cccs1`, for which the “hERG current change (%, negative = inhibition) at 10uM” value is -31.6%. On to `COCc1cc(C)nc(SCc2ccccc2)c1C#N`, for which the “hERG current change (%, negative = inhibition) at 10uM” value is listed as 21.2%. Under `Clc1ccc(/C=N/Nc2nn[nH]n2)cc1` stands 12.6%. Then `COc1ccccc1NC(=O)COC(=O)CC(C)(C)CC1=NS(=O)(=O)c2ccccc2N1`, with -69.9%.

As to `Nc1cc(=O)[nH]c(SCCSc2cc(Cl)ccc2Cl)n1`, the “hERG current change (%, negative = inhibition) at 10uM” value is 8.3%.

Turning to `O=C(O)c1cccc(NC(=O)C2C3C=CC(C3)C2C(=O)O)c1` (centres unmarked), the “hERG current change (%, negative = inhibition) at 10uM” value is 32.6%. Then `O=C(CSc1nc(C(F)(F)F)cc(=O)[nH]1)Nc1nccs1`, with 18.5%. As for `CCOC(=O)C1(CC2CCCCO2)CCN(C(=O)Nc2ccc(SC)cc2)CC1` (centres unmarked), the “hERG current change (%, negative = inhibition) at 10uM” value was 2.65%. `O=C(CN1CCOCC1)Nc1cc([N+](=O)[O-])ccc1Cl`: the “hERG current change (%, negative = inhibition) at 10uM” value is -17%. Then `Cc1cccc(NC(=O)CSc2nc(C)c(Cc3ccccc3)c(=O)[nH]2)c1`, with 18.5%; and `COc1ccccc1NC(=O)CN1CCN(CC(=O)Nc2cc(NC(C)=O)ccc2OC)CC1`, with -50.3%. Then `CN(Cc1ccccc1)S(=O)(=O)c1nnc(NC(=O)c2ccccc2)s1`, with 34.1%; and `CCOC(=O)C1C(=O)CC(C)(O)C(C(=O)OCC)C1c1ccc(Br)o1` (centres unmarked), with -5.95%. Then `Cn1cccc1C(=O)NC(=O)CSc1nc2ccccc2s1`, with 11.6%; and `COc1ccccc1OC(C)C(=O)N1CCN(Cc2ccc3c(c2)OCO3)CC1` (centres unmarked), with 0.865%; and `CCOCCCn1cc(C(=O)c2cc(Br)ccc2O)cc(C#N)c1=O`, with -11.2%. For the compound `CCOC(=O)CN1N=C(/C=C/c2ccc(OC)cc2)CCC1=O`, the “hERG current change (%, negative = inhibition) at 10uM” value is listed as 3%. Under `Cc1ccc(C2NC(=S)NC3=C2N2CCC3CC2)cc1` (centres unmarked) stands 1.2%; under `Cc1ccc(S(=O)(=O)[N-]c2c(C)n(C)n(-c3ccccc3)c2=O)cc1.[Na+]`, 14.3%; under `CN(C)/C=C/C(=O)c1ccc([N+](=O)[O-])c(CS(=O)(=O)c2ccccc2)c1`, -26.4%. Turning to `Cc1noc(NS(=O)(=O)c2ccc(N/C=C\C(=O)c3ccccc3)cc2)c1C`, the “hERG current change (%, negative = inhibition) at 10uM” value is on record as 6.25%. In the case of `COc1cccc(N2C(=O)C(O)=C(C(C)=O)C2c2ccc(OC)c(OC)c2)c1` (centres unmarked), the “hERG current change (%, negative = inhibition) at 10uM” value stood at 7.3%. Regarding `CCOc1ccc(C(=O)N/N=C/c2ccc(SC)cc2)cc1`, the “hERG current change (%, negative = inhibition) at 10uM” value came to 2.51%.

With `COc1ccc(C(C(=O)NC(C)(C)C)N(Cc2ccccc2)C(=O)CCC(=O)Nc2cc(C)on2)cc1` (centres unmarked), the “hERG current change (%, negative = inhibition) at 10uM” value worked out at 1.29%. In the case of `CCn1cc(C(=O)O)c(=O)c2cc(F)c(N3CCN(S(=O)(=O)c4ccc5c(c4)OCCO5)CC3)cc21`, the “hERG current change (%, negative = inhibition) at 10uM” value is on record as -14.2%. Turning to `COCCNC(=O)COc1cccc(Oc2ccccc2)c1`, the “hERG current change (%, negative = inhibition) at 10uM” value was -5.42%. With `CC(=O)N1CCC(=NNc2ccc(S(N)(=O)=O)cc2[N+](=O)[O-])CC1`, the “hERG current change (%, negative = inhibition) at 10uM” value is reported as 5.36%. As for `CC[N+](C)(CC)CC(O)COCC1COc2ccccc2O1.[I-]` (centres unmarked), the “hERG current change (%, negative = inhibition) at 10uM” value is 1.73%.

Take `Cc1nc2ccc(NC(=S)NC(C)C)cc2nc1C`: the “hERG current change (%, negative = inhibition) at 10uM” value is -14.9%. Under `Cc1ccc(/C=C/C(=O)Nc2cccc3cccnc23)o1` stands -3.68%; under `COc1ccc(CCNC(=O)c2ccccc2-c2ccccc2C(=O)O)cc1OC`, 10.2%; under `CCn1cc(Br)c(-c2nc3ccccc3c(=O)n2N)n1`, -2.36%. Take `CCCS(=O)(=O)C(=C1NCCO1)S(=O)(=O)CCC`: the “hERG current change (%, negative = inhibition) at 10uM” value stood at 6.49%.

As for `CC1CCN(S(=O)(=O)c2ccc3ncn(CC(=O)N4CCN(C)CC4)c(=O)c3c2)CC1`, the “hERG current change (%, negative = inhibition) at 10uM” value is given as -16.3%.

With `COc1ccc(-n2c(SC(CN3CCCCC3)CN3CCCC3=O)nc3ccccc3c2=O)cc1.Cl` (centres unmarked), the “hERG current change (%, negative = inhibition) at 10uM” value is on record as -8.82%. Then `COc1ccc(-n2cc(C(=O)O)c3ccccc3c2=O)cc1`, with -11.3%; and `CCOc1cc(Br)c(CC(=O)O)cc1OCC`, with 3.03%; and `CC(=O)CC(=O)Nc1ccc2ccccc2c1`, with 13%.

For the compound `Cn1nc(-c2ccc(NCCO)c([N+](=O)[O-])c2)c2ccccc2c1=O`, the “hERG current change (%, negative = inhibition) at 10uM” value is -2.29%.

On to `C(=N\Nc1nc(Nc2ccccc2)nc(Nc2ccccc2)n1)/c1cccnc1`, for which the “hERG current change (%, negative = inhibition) at 10uM” value is on record as -4.87%. Then `O=C(COC(=O)c1ccccc1[N+](=O)[O-])NC(=O)c1ccccc1`, with 5.64%; and `CC(=O)O[C@@H]1C[C@H]2C(C)=C[C@H]3OC(=O)[C@@H](C)[C@H]3C[C@H]2[C@]1(C)O`, with 4.33%; and `CCOC(=O)CSc1nc(N)nc(C)c1Cl`, with 13.4%.

On to `O=C(CCNC(=O)C1CCN(S(=O)(=O)c2ccccc2)CC1)Nc1ccccc1`, for which the “hERG current change (%, negative = inhibition) at 10uM” value amounted to 4.75%. Consider `COc1cccc(CNC(=O)C(c2ccc(Cl)cc2)C(C)C)c1` (centres unmarked), for which the “hERG current change (%, negative = inhibition) at 10uM” value is on record as 11.5%.

With `O=C(COC(=O)c1ccccc1Br)Nc1ccccc1F`, the “hERG current change (%, negative = inhibition) at 10uM” value was -21%. Consider `CC1CCCCC1NC(=O)CN1C(=O)NC(Cc2ccccc2)(Cc2ccccc2)C1=O` (centres unmarked), for which the “hERG current change (%, negative = inhibition) at 10uM” value is -14.6%. Then `Cc1cc(C)c(S(=O)(=O)N2CCCC2)c(C)c1`, with 9.56%; and `CSc1ccc(C(c2c(C(=O)O)[nH]c3ccccc23)c2c(C(=O)O)[nH]c3ccccc23)cc1`, with 12.1%.
